Test results from the RNAGym collection of RNA variant scans (doi:10.1093/nar/gkz1192).
Read counts are not given, so values of variants with three or more changes are uncertain.

B1: CPEB3 Ribozyme (parent)
chain: UAACAGGGGGCCACAGCAGAAGCGUUCACGUCGCAGCCCCUGUCAGAUUCUGGUGAAUCUGCGAAUUCUGCUGUAUAUCUC

Variants of: B1
Assay: self-cleavage, relative activity (ratio to wild type); higher = more cleavage; in vitro, sequencing
Summary of the method: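 Relative activity compares each variant's cleaved/total read fraction with that of the unmutated ribozyme. To get these fractions, barcoded CPEB3 ribozyme libraries from rounds of error-prone PCR were transcribed with T7 RNA polymerase for 5 hours at 37°C and then given 15 min of DNase I treatment before EDTA was added. The RNAs were reverse transcribed with template switching and sequenced on Illumina, and DNA sequencing linked barcodes to variants. A minimum of 5 reads applied, and three batches were averaged.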

Row | Variant | self-cleavage
1 | UAACAGGGGGCCGCAGCAGAAGCGUUCACGUCACAGCCCCUGUCAGAUUCUGGUGAAUCUGCGAAUUCUGCCGUAUAUCUC [A13G G33A U72C] | 0.33
2 | UAACAGGGGGCCGCAGCAGAAGCGUUCACGUCCCAGCCCCUGUCAGAUUCUGGUGUAUCUGCGAAUUCAGCUGUAUACCUC [A13G G33C A56U U69A U78C] | 0.06
3 | UAACAGGGGGCCGCAGCAGAAGCGUUCACGUCCCAGCCCCUGUCAGAUUCUGGUGAAUCUGCGAAUCCUGCUGUAUAUCUC [A13G G33C U67C] | 0.38
4 | UAACAGGGGGCCGCAGCAGAAGCGUUCACGUCGCAACCCCUGUCAGACUCUGGUGAAUCUGCGAAUUCUGCUGUAUACCUC [A13G G36A U48C U78C] | 0.1
5 | UAACAGGGGGCCGCAGCAGAAGCGUUCACGUCGCAGCCCCUUUCAGAUUCUGGUGGAUCUGCGAAUUCUGCUGUAUAUCUC [A13G G42U A56G] | 0.29
6 | UAACAGGGGGCCGCAGCAGAAGCGUUCACGUCGCAGCCCCUGUCAAAUCCUGGUGAAUCUGCGAAUUCUGCUGUAUAUCUC [A13G G46A U49C] | 0.14
7 | UAACAGGGGGCCGCAGCAGAAGCGUUCACGUCGCAGCCCCUGUCAAAUCCUGGUGAAUCCGCGAAUUCUGCUGUUUAUCUC [A13G G46A U49C U60C A75U] | 0.1
8 | UAACAGGGGGCCGCAGCAGAAGCGUUCACGUCGCAGCCCCUGUCACAUUCUGGUGAAUCCGCGAAUGCUGCUGUAUAUCUC [A13G G46C U60C U67G] | 0.33
9 | UAACAGGGGGCCGCAGCAGAAGCGUUCACGUCGCAGCCCCUGUCAUAUUCUGGUGAAUCAGCGGAUUCUGCUGUAUAUCUC [A13G G46U U60A A64G] | 0.1
10 | UAACAGGGGGCCGCAGCAGAAGCGUUCACGUCGCAGCCCCUGUCAGAUUCUCGUGAAUCUGCGAAUUCUGCUGUAUACCCC [A13G G52C U78C U80C] | 0.79
11 | UAACAGGGGGCCGCAGCAGAAGCGUUCACGUCGCAGCCCCUGUCAGAUUCUGAUGAAUCAGCGAAUUCAGCUGUACAUCUC [A13G G53A U60A U69A U76C] | 0.19
12 | UAACAGGGGGCCGCAGCAGAAGCGUUCACGUCGCAGCCCCUGUCAGAUUCUGCCGAAUCUGCGAAUUCUGCUGUAUAACUC [A13G G53C U54C U78A] | 1.13
13 | UAACAGGGGGCCGCAGCAGAAGCGUUCACGUCGCAGCCCCUGUCAGAUUCUGGUGAAUCUGCAGAUUCUGCUGUAUAUCUC [A13G G63A A64G] | 0.47
14 | UAACAGGGGGCCGCAGCAGAAGCGUUCACGUCGCAGCCCCUGUCAGAUUCUGGUGAAUCUGCGAAUUCUACUGUACAUCUG [A13G G70A U76C C81G] | 0.66
15 | UAACAGGGGGCCGCAGCAGAAGCGAUCACGUCGCAGCCCCUGUCUGAUUCUGGUGAAUCUGCGAAUUCUGCUGUAUAUCUC [A13G U25A A45U] | 0.49
16 | UAACAGGGGGCCGCAGCAGAAGCGAUCACGUCGCAGCCGCUGUCAGAUUCUGGUGAAUCUGCGAAUUCUGCUGGAUAUCUC [A13G U25A C39G U74G] | 0.31
17 | UAACAGGGGGCCGCAGCAGAAGCGAUCACGUCCCAGCCCCUGUCAGAUUCUGGUGAAUCUGCGAAUUCUGCUGUAUAUCUC [A13G U25A G33C] | 0.08

Row | Variant | self-cleavage
18 | UAACAGGGGGCCGCAGCAGAAGCGAUCACGUCGCAGCCCCUGUCAGAUUCUGGUGAAUCUGCGAAUUCUGCUCUAUACCUC [A13G U25A G73C U78C] | 0.25
19 | UAACAGGGGGCCGCAGCAGAAGCGACCACGUCGCAGCCCCUGUCGGAUUCUGGUGGAUCUGCGAAUUCUGCUGUAUAUCUC [A13G U25A U26C A45G A56G] | 0.08
20 | UAACAGGGGGCCGCAGCAGAAGCGAUCACGGCGCAGCCCCUGUCAGAUUCUGGUGAAUCUGCGAAUUCUGCUGUAUAUCUC [A13G U25A U31G] | 0.31
21 | UAACAGGGGGCCGCAGCAGAAGCGAUCACGUCGCAGCCCCUGCCAGAUUCUGGUGAAUCCGCGAAUUCCGCUGUAUACCUC [A13G U25A U43C U60C U69C U78C] | 0.08
22 | UAACAGGGGGCCGCAGCAGAAGCGAUCACGUCGCAGCCCCUGUCAGAUUCUGGUGAAUCUGCGAAUUCUGCAGUAUAUCUU [A13G U25A U72A C81U] | 0.02
23 | UAACAGGGGGCCGCAGCAGAAGCGCUCCCGUCGCAGUCCCUGUCAGAUUCUGGUGAAUCUGCGAAUUCUCCUGUAUACCUC [A13G U25C A28C C37U G70C U78C] | 0.08
24 | UAACAGGGGGCCGCAGCAGAAGCGCUCGCGACGCAGCCCCUGUCAGAUUCUGGUGAAUCUGCGAAUUCUGCUGCAUAUCUC [A13G U25C A28G U31A U74C] | 0.07
25 | UAACAGGGGGCCGCAGCAGAAGCGCUCUCGUUGCUGCCCCUGUCAGAUUCUGGUGAAUCUGCGAAUUCUGCUGUAUAUCUC [A13G U25C A28U C32U A35U] | 0.41
26 | UAACAGGGGGCCGCAGCAGAAGCGCUCACGUCGCGGCCCCUGCCAGAUUUUGGUGAAUCUGCGAACUCUGCUGUAUAUCUC [A13G U25C A35G U43C C50U U66C] | 0
27 | UAACAGGGGGCCGCAGCAGAAGCGCUCACGUCGCUGCCCCUGUCGGAUUCUGGUGAAUCUGCGAAUUCUGCUGUAUAUCUC [A13G U25C A35U A45G] | 0.26
28 | UAACAGGGGGCCGCAGCAGAAGCGCUCACGUCGCUGCCCCUGUCAGGUUCUGGUGAAUCUGCGAAUUCUGCUGUAUAUCUC [A13G U25C A35U A47G] | 0.26
29 | UAACAGGGGGCCGCAGCAGAAGCGCUCACGUCGCAGCCCCUGUCGGAUUCUGGUGAAUCUGCGAAUUCUGCUGUAUAUCUC [A13G U25C A45G] | 0.31
30 | UAACAGGGGGCCGCAGCAGAAGCGCUCACGUCGCAGCCCCUGUCGGAUUCUGGUGAGUCUGCGGAUUCUGCUGUAUAGCUC [A13G U25C A45G A57G A64G U78G] | 0.12
31 | UAACAGGGGGCCGCAGCAGAAGCGCUCACGUCGCAGCCCCUGUCGGAUUCUGGUGAAUCUGCGAAUUCUGCUGUAUACCUC [A13G U25C A45G U78C] | 0.08
32 | UAACAGGGGGCCGCAGCAGAAGCGCUCACGUCGCAGCCCCUGUCAGGUUCUGGUGAAUCUGCGAAUUCAGCUGUAUAUCUC [A13G U25C A47G U69A] | 0.34
33 | UAACAGGGGGCCGCAGCAGAAGCGCUCACGUCGCAGCCCCUGUCAGUUUCUGGUGAAUCCGCGAAUUCUGCUGUAUAUCUC [A13G U25C A47U U60C] | 0.4
34 | UAACAGGGGGCCGCAGCAGAAGCGCUCACGUCGCAGCCCCUGUCAGAUUCUGGUGGAUCUGCGAAUUCAGCUGUAUAUCUC [A13G U25C A56G U69A] | 0.14
